Assay results from PubChem BioAssay AID1508642 (National Center for Advancing Translational Sciences (NCATS), 2021).
The whole screen tested about 43,000 compounds, of which about 200 (0.47%) were called active. Not shown: some 12% with an inconclusive outcome. Calls follow the shape of the dose curve; as a rule, active = well fitted cell-killing curve with a large enough effect; inconclusive = small, poorly fitted or top-dose-only effect, or effect the other way; inactive = flat fitted curve, though single readings scatter. The list shows a part of the results.

Experiment: Cell viability qHTS assay in S16 Pmp22-F2sN cells; also: nearly all actives have a fitted effect of over 65% in size
Conditions: S16 Pmp22-F2sN Schwann cells (luciferase reporters placed in the Pmp22 gene) viability, CellTiter-Glo, 24 h; series mostly up to 57.5 µM; activity change, negative = cytotoxicity: at the top concentration
Method in brief: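 Luminescence from CellTiter-Glo, read by CCD camera after a 15 min room-temperature incubation, served as the viability signal. Reporter Schwann cells (S16 Pmp22-F2sN) had been treated with pin-transferred compounds for 24 h at 37C.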
% is scaled to controls: 0 for no effect and ±100 for the full control effect.

SMILES	activity change, negative = cytotoxicity
O=C(Nc1ccc2nc(SCC(=O)N3CCCC3)sc2c1)c1ccc(F)cc1	inactive: 6.04%
Cc1ccc(NC(=O)NCc2cccn2Cc2ccccc2)cc1F	inactive: 2.65%
Cc1ccc(-c2cn3c(n2)sc2cc(C(=O)N4CCCCC4)ccc23)cc1	inactive: -11.4%
Cc1cc(C)c2c(=O)cc(C(=O)Nc3ccc(S(=O)(=O)Nc4nc(C)cc(C)n4)cc3)oc2c1	inactive: 5.63%
COC(=O)C(C)Sc1nc2c([nH]c3ccccc32)c(=O)n1-c1ccc(OC)cc1 (centres undefined)	inactive: 20.8%
COc1ccc(OC)c(NC(=O)c2csnn2)c1	inactive: -0.861%
CCOc1ccccc1-c1nnc(SCc2ccc(Cl)cc2)o1	inactive: -1.53%
COCCCNC(=O)c1cc(-c2cccnc2)nc2ccccc12	inactive: -0.0657%
COc1ccc(-n2c(SCC(=O)N3CCC(C)CC3)nc3c([nH]c4ccccc43)c2=O)cc1	inactive: 2.55%
CC1=C(C(=O)Nc2ccc(C)cc2C)C(c2sccc2C)n2ncnc2N1 (centres undefined)	inactive: 6.86%
COc1ccc(CNC(=O)c2ccc3c(c2)N(Cc2ccccc2)C(=O)c2ccccc2S3(=O)=O)cc1	inactive: 0.704%
COc1ccc(-c2cc3nc(C4CCN(C(=O)OC(C)(C)C)CC4)c(C(=O)Nc4cc(Cl)cc(Cl)c4)cn3n2)cc1	inactive: 0.825%
CCOc1ccccc1N(C)C(=O)c1nn(-c2ccc(C)cc2)c(=O)c2c1c1ccccc1n2C	inactive: 3.92%
Cc1ccc2occ(CC(=O)Nc3nnc(C(C)C)s3)c2c1	inactive: -4.65%
O=C(Nc1nnc(S(=O)(=O)N2CCCc3ccccc32)s1)c1ccccc1Br	inactive: 2.15%
CCOc1cccc(C2c3c(oc4ccccc4c3=O)C(=O)N2c2nc(C)c(C(=O)OC)s2)c1 (centres undefined)	inactive: -0.256%
CCCN(CCC)C(=O)Cn1c(=O)n(Cc2ccc(C(=O)NCCc3ccc(OC)c(OC)c3)cc2)c(=O)c2ccccc21	inactive: -0.0806%
CCCN(C(=O)c1cc2c(Cl)nc3ccccc3c2s1)c1cccc(C)c1	inactive: 19.9%
COc1cc(C(=O)NCC(c2cccnc2)N2CCN(c3ccc(F)cc3)CC2)cc(OC)c1OC (centres undefined)	inactive: 10.3%
Cc1nn(-c2ccc3nncn3n2)c(C)c1CCC(=O)Nc1ccc(OC(F)(F)F)cc1	inactive: -3.34%
COc1cccc(-c2nnc3n(Cc4ccc(F)cc4)c(=O)c4ccccc4n23)c1	inactive: -23%
CC1=C(C(=O)Nc2ccc(C)cc2C)C(c2ccccc2C)n2ncnc2N1 (centres undefined)	inactive: 4.31%
COc1ccc(CCNC(=O)NCc2noc3ccccc23)c(OC)c1	inactive: 2.85%
CN(C)c1ccc(C(CNS(=O)(=O)c2ccc(Cl)cc2)N2CCCC2)cc1 (centres undefined)	inactive: -3.1%

SMILES	activity change, negative = cytotoxicity
COc1ccccc1CNC(=O)C1CCN(Cc2nc(-c3ccc(OC)c(OC)c3)oc2C)CC1	inactive: -1.13%
Cc1ccccc1CNC(=O)c1ccc(-n2c(C)cc3c2CCCC3)cc1	inactive: -4.93%
Cc1ccc(-c2cc3ncc(C(=O)c4cc([N+](=O)[O-])ccc4O)cn3n2)cc1	inactive: -19.5%
Cc1ccc(NC(=O)CCSCCc2ccccn2)cc1	inactive: 1.04%
CCc1ccc(-n2c(C)nnc2SCc2nc(-c3ccc(OC)cc3)no2)cc1	inactive: -19.9%
O=C(Nc1ccc(Cl)cc1Cl)c1cc(S(=O)(=O)N2CCN(c3ccccc3F)CC2)ccc1F	inactive: -21.4%
CCCCN(C)CCNC(=O)c1cc(-c2cccnc2)nc2ccc(S(=O)(=O)N3CCC(C)CC3)cc12	inactive: -23.6%
Cc1ccn2c(c1)nc(=O)c1cc(S(=O)(=O)N3CCC(C)CC3)c(Cl)cc12	inactive: 15.6%
CN(Cc1ccccc1)c1nc(-c2ccc(F)cc2)cc(C(F)(F)F)n1	inactive: -5.31%
O=C(COc1ccccc1F)Nc1ccc(C(=O)OCc2cc(=O)n3nc(C4CC4)sc3n2)cc1	inactive: 2.66%
CCC(Oc1ccccc1F)C(=O)Nc1c(C(=O)c2ccccc2)oc2ccccc12 (centres undefined)	inactive: 2.5%
O=C(Nc1ccc(Cl)cc1)C1CCN(c2nc3ccccc3n3cccc23)CC1	inactive: 5.56%
CC(C)(C)OC(=O)N1CCC(c2c(C(=O)NCc3ccc4c(c3)OCO4)cnn2-c2ccc(F)cc2F)CC1	inactive: -19.2%
CCC(C(=O)Nc1cccc(-c2cn3cccnc3n2)c1)c1ccccc1 (centres undefined)	inactive: 4.34%
Cc1cccc(N2CCN(c3ncnc4onc(-c5ccc(F)cc5)c34)CC2C)c1 (centres undefined)	inactive: -5.12%
Cc1ccc2c(=O)cc(C(=O)Nc3ccc(S(=O)(=O)N4CCCCC4)cc3)oc2c1C	inactive: -1.74%
COc1ccccc1Cc1nc2ccccc2nc1SCC(=O)NCc1ccc(F)cc1	inactive: 5.19%
COc1ccccc1Nc1nc2c(S(=O)(=O)c3ccc(C(C)C)cc3)nnn2c2ccsc12	inactive: -0.492%
Cc1coc2cc3oc(=O)c(CC(=O)NCCc4ccccc4F)c(C)c3cc12	inactive: 19.5%
O=C(Cn1c(=O)n(Cc2ccc(C(=O)NCc3ccccc3Cl)cc2)c(=O)c2ccccc21)Nc1ccc(F)cc1	inactive: 11.9%
CC(C)(C)C(=O)Nc1ccc(Cl)c(-c2nc3ccccc3[nH]2)c1	inactive: 15.4%
Cc1c(-c2ccccc2)n(-c2ccc(Cl)cc2)c2nc3c(c(=O)n(C)c(=O)n3C)n12	inactive: 12.2%
Cc1cc(C)c2oc(-c3ccc(NC(=O)c4cc(Br)ccc4Cl)cc3)nc2c1	inactive: 4.41%
Cc1ccc(NC(=O)CCc2nc3cccnc3n2-c2ccccc2)cc1	inactive: -0.224%

SMILES	activity change, negative = cytotoxicity
Cc1ccc(CNc2ccc(-c3nc(-c4cccnc4)no3)cc2[N+](=O)[O-])cc1	inactive: 12.4%
CCN(CC)S(=O)(=O)c1ccc2c(c1)N(CC(=O)Nc1ccc(F)cc1F)C(=O)C1CCCN21 (centres undefined)	inactive: -11.4%
COc1ccc(CNC(=O)CCCCCn2c(=O)[nH]c3ccccc3c2=O)cc1	inactive: 4.57%
Oc1cccc(-c2nc3ncccn3c2Nc2cccc(C(F)(F)F)c2)c1	inactive: -26.3%
CCOC(=O)c1[nH]c2ccccc2c1NC(=O)c1ccc(OC)c(OC)c1	inactive: -1.92%
COc1cc(NC(=O)Cn2c(C)cc(C)c(C#N)c2=O)cc(OC)c1	inactive: 4.79%
CCn1cc(C(=O)NCCc2ccc(Cl)cc2)c(=O)c2cc(S(=O)(=O)N3CCOCC3)ccc21	inactive: 1.85%
Cc1ccc(C)c(NC(=O)c2cc(S(=O)(=O)N3CCc4ccccc4C3)ccc2F)c1	inactive: 8.39%
COc1ccccc1CNC(=O)c1cc2sccc2n1Cc1ccc(F)cc1	inactive: -8.81%
COc1ccc(Br)cc1CNC(=O)CCCn1c(=O)c2cccn2c2cccnc21	inactive: -14.1%
CCc1cccc(NC(=O)Cn2c(C(=O)OC)cc3occc32)c1	inactive: 4.94%
COc1ccccc1NC(=O)Cn1c(=O)n(-c2ccccc2Cl)c(=O)c2sc3ccccc3c21	inactive: 8.11%
COc1ccc(-c2noc(-c3ccccc3OCC(=O)Nc3ccc(C(C)=O)cc3)n2)cc1	inactive: 18.7%
CCOc1ccc(NC(=O)c2cccc(N3CCCS3(=O)=O)c2)cc1	inactive: 9.63%
Cc1ccc(C)c(N2CCN(C(=O)CN3C(=O)COc4ccc(S(=O)(=O)N5CCOCC5)cc43)CC2)c1	inactive: 4.84%
COC(=O)c1cc2sccc2n1Cc1ccc(F)cc1	inactive: 5.92%
CCCCC(=O)Nc1nnc(S(=O)(=O)N2CCCCCC2)s1	inactive: -7.54%
O=C(Nc1ccc(F)c(Cl)c1)C1CCCN(c2ncnc3onc(-c4ccc(F)cc4)c23)C1 (centres undefined)	inactive: -25.5%
CCC(=O)N1c2ccccc2CC1C(=O)NCCCN1CCN(c2ccccc2)CC1 (centres undefined)	inactive: 18.3%
CCOc1ccc(CCNC(=O)c2cc3cc4ccc(OC)cc4nc3s2)cc1OCC	inactive: 4.89%
Cc1ccccc1OCC(=O)Nc1ccc(S(=O)(=O)Nc2ncccn2)cc1	inactive: -18.3%
Cc1ccc(-n2nc(C)c3c(C)c(CCC(=O)NCc4cccc(Cl)c4)c(C)nc32)cc1C	inactive: 3.8%
COc1ccc(CCNC(=O)C(C)n2nc(C)c3sc4ccccc4c3c2=O)cc1OC (centres undefined)	inactive: 4.73%
CCOc1ccc(C2C(C(=O)Nc3ccc(C)cc3C)=C(C)Nc3c(C(=O)Nc4ccc(C)cc4)cnn32)cc1OC (centres undefined)	inactive: -5.06%

SMILES	activity change, negative = cytotoxicity
CCC12CN3CC(C)(CN(C1)C3c1c(C)[nH]c3ccccc13)C2=O (centres undefined)	inactive: 3.12%
COc1ccc(-c2nc(C)c(CCNC(=O)c3cccc(C)c3)s2)cc1OC	inactive: 14%
COc1ccc(C2NC(=O)N(C)C3=C2C(=O)N(c2ccccc2)C3)cc1 (centres undefined)	inactive: -3.32%
COc1ccc(C(=O)Oc2c(Sc3ccc(C)cc3)c(C)nn2C(C)(C)C)c(OC)c1	inactive: -27.9%
COCCNC(=O)C(=O)Nc1ccc2nc3n(c(=O)c2c1)CCCCC3	inactive: -2.29%
C=Cc1ccc(Cn2c(C(=O)O)c(CNCc3cc(OC)ccc3OC)c3ccc(C)cc32)cc1	inactive: -27.6%
Cc1c(C(=O)N2CCOCC2)oc2c1-c1nn(CC(=O)NCc3ccccc3)cc1CC2	inactive: 1.49%
CSc1ccc(Nc2nn(-c3ccc(OC(F)(F)F)cc3)nc2C(C)=O)cc1	inactive: -2.96%
Cn1c(=O)n(C)c2cc(CNCc3ccc(C(=O)O)cc3)ccc21	inactive: 6.73%
COC(=O)C1=C(c2ccccc2)c2ccccc2S(=O)(=O)N1CC(=O)Nc1cc(C)ccc1C	inactive: 4.8%
Cc1ccc(CN2C(=O)C3(SCC(=O)N3c3ccc(C)c(C)c3)c3ccccc32)cc1 (centres undefined)	inactive: -0.76%
CCOC(=O)c1cccc(NC(=O)CCc2c(C)nc3c4cccnc4nn3c2C)c1	inactive: 0.293%
CCOC(=O)Cn1nc(N2CCN(c3ccc(F)cc3)CC2)ccc1=O	inactive: 2.64%
Cc1cccc(N2CCN(c3c(CN4CCCC4)c(=O)oc4ccccc34)CC2)c1C	inactive: -1.53%
Cc1ccc2c(c1)N(CC(=O)NCc1cccc(Cl)c1)C(=O)c1cccnc1O2	inactive: 8.73%
COc1ccccc1Cn1c(CNS(=O)(=O)c2c(C)cc(C)cc2C)nc2cccnc21	inactive: -4.51%
CCOCCn1ccc2c(OCC(=O)Nc3cc(C(F)(F)F)ccc3Cl)cccc2c1=O	inactive: 1.88%
COc1ccc(NC(=O)CCS(=O)(=O)c2cc(Br)cc3c2N(C(C)=O)CC3)c(OC)c1	inactive: -4.91%
CCOc1ccccc1NC(=O)c1ccc2oc(=O)c(S(=O)(=O)c3ccc(F)cc3)cc2c1	inactive: -11.9%
CN(C(=O)CSc1nc2ccc(NC(=O)c3ccc(F)cc3)cc2s1)c1ccccc1	inactive: -25.2%
Cc1cccc(N2CCN(C(=O)Cn3nc(C)c4sc5ccccc5c4c3=O)CC2C)c1 (centres undefined)	inactive: 7.1%
CCn1cc(C(=O)N(C)Cc2ccccc2)c(=O)c2cc(S(=O)(=O)N3CCCCC3)ccc21	inactive: 12.6%
